Results taken from US20090143279A1 (priority 2007, published 2009).
Read-outs that look alike come from different tables or passages of the source.

System: cellular ATP levels
Conditions: for ATP (composite Z-score): normalized score vs mock-treated (DMSO) wells
[1] = composite Z-score vs mock-treated (DMSO) wells, Conc 20 μM
[2] = 20 μM, composite Z-score vs DMSO
[3] = normalized composite Z-score vs mock-treated (DMSO) wells, Conc 20 μM
[4] = composite Z-score vs DMSO wells, Conc 20 μM
[5] = composite Z-score vs DMSO, Conc 20 μM

CC(=O)Oc1cc(-c2coc3cc(OC(C)=O)c(OC(C)=O)c(OC(C)=O)c3c2=O)cc(OC(C)=O)c1OC(C)=O [iriginol hexaaceatate]
ATP [1]: 0.302

CCN(CC)CCNC(=O)COc1ccc(OC)cc1 [mefexamide]
ATP (14.26 μM, composite Z-score vs DMSO): −0.271 | ATP [2]: −0.606

muurolladie-3-one
ATP [3]: −0.436

NS(=O)(=O)c1cc2c(cc1Cl)N=CNS2(=O)=O [chlorothiazide]
ATP [4]: 0.445

C=C1C2CC[C@@]3(C)[C@H](c4ccoc4)OC(=O)C[C@]13O[C@H]1CC(=O)C(C)(C)[C@H](C(OC(C)=O)C(=O)OC)[C@@]21C (stereo partly shown) [6-acetoxyangolensic acid methyl ester]
ATP (composite Z-score) (Conc 20 μM): −0.780

CC(C)(O)[C@@H]1[C@H]2OC(=O)[C@@H]1[C@]1(O)C[C@H]3O[C@]34C(=O)O[C@H]2[C@]14C [picrotin]
ATP [2]: 0.205

COc1ccc(-c2cc(=O)c3c(O)cc(O)cc3o2)cc1O [diosmetin]
ATP [3]: −0.756

C[N+](C)(C)CCCCCC[N+](C)(C)C [hexamethonium bromide]
ATP [4]: 0.695

C[C@@H]1C(=O)O[C@H]2C[C@@]34[C@H]5C[C@@H](C(C)(C)C)[C@]36[C@@H](OC(=O)[C@@H]6O)O[C@@]4(C(=O)O5)[C@]21O [ginkgolide A]
ATP [3]: −0.205

COC(=O)c1c(OC)cc2c(c1C)Oc1c(Cl)c(O)c(Cl)c(C)c1C(=O)O2 [gangaleoidin]
ATP [3]: −1.768

COc1ccc2oc3ccccc3c(=O)c2c1 [2-methoxyxanthone]
ATP [5]: −0.087

C[C@]12CC[C@H](O)C[C@H]1CC[C@@H]1[C@@H]2[C@H](O)C[C@]2(C)[C@@H](C3=CC(=O)OC3)CC[C@]12O [sarmentogenin]
ATP [3]: 1.794

CC(=O)c1c(O)c(C)c(O)c2c1oc1c(C(C)=O)c(O)c(C)c(O)c12 [diacetyldideisovaleryl-rhodomyrtoxin]
ATP [1]: −0.179

COc1ccc(-c2cc(=O)c3c(O)cc(O[C@H]4O[C@H](CO[C@@H]5O[C@@H](C)[C@H](O)[C@@H](O)[C@H]5O)[C@@H](O)[C@H](O)[C@H]4O)cc3o2)cc1 [buddleoflavonoloside]
ATP (composite Z-score) (Conc 20 μM): 0.643

O=c1cc(-c2cc(O)c(O)c(O)c2)oc2cc(O)cc(O)c12 [hieracin, reference compound]
ATP (composite Z-score) (Conc 20 μM): 0.806 | ATP (Table 4, C2C12 myotubes, 48 h, composite Z-score): 0.806

Cc1cc(O)c(C=O)c2c1C(=O)Oc1c(C)c(O)c3c(c1O2)C(O)OC3=O (stereo not shown) [norstictic acid]
ATP [5]: 0.430 | ATP [1]: 2.102

CC[C@@H](C)C(=O)O[C@H]1[C@H](O)[C@H]2[C@@H](CN3C[C@@H](C)CC[C@H]3[C@@]2(C)O)[C@@H]2C[C@]34O[C@]5(O)[C@@H](OC(=O)[C@@](C)(O)CC)CC[C@@]3(C)[C@@H]5[C@@H](OC(C)=O)[C@@H](OC(C)=O)[C@H]4[C@@]21O [protoveratrine A]
ATP [5]: 1.266

C[C@]12CCC(=O)C=C1C=C[C@@H]1[C@@H]2CC[C@@]2(C)[C@H]1CC[C@@]2(O)CCC(=O)O [canrenoic acid]
ATP (composite Z-score) (Conc 20 μM): −0.434

C=CC(C1=CC(=O)C(OC)=CC1=O)c1ccc(O)cc1 (stereo not shown) [4-methoxy-4′-hydroxy-dalbergione]
ATP [1]: 1.255

C=C1CC[C@@H]2[C@](C)(CO)[C@H](O)CC[C@@]2(C)[C@@H]1C/C=C1/C(=O)OC[C@H]1O [andrographolide]
ATP [3]: 0.416

C=C1C2=CC(=O)O[C@@H](c3ccoc3)[C@]2(C)CC[C@@H]1[C@@]1(C)C=CC(=O)C(C)(C)[C@@H]1CC(=O)OC [deoxyandirobin]
ATP [1]: 1.237

CNC(=O)ON=C(C)SC [methomyl]
ATP [5]: −0.211

O=C(c1ccccc1)c1ccc2n1CCC2C(=O)O (stereo not shown) [ketorolac]
ATP (composite Z-score vs DMSO, Conc 10.62 μM): −0.629 | ATP [5]: −0.259

CC(=O)O[C@@H]1CC2C(C)(C)[C@H](O)CC[C@]2(C)C2CC[C@@]3(C)[C@H](c4ccoc4)OC(=O)C4OC43[C@@]21C (stereo partly drawn) [3alpha-hydroxydeoxodihydrogedunin]
ATP [3]: 0.835

CC1(C)C2CC(=O)[C@]3(C)C(CC[C@@]4(C)[C@H](c5ccoc5)OC(=O)[C@H]5O[C@]543)[C@@]2(C)C(=O)C[C@H]1O (stereo partly shown)
ATP [3]: −0.155

CC(C)=CCc1c(O)cc(C)oc1=O [2-isoprenyl-3-hydroxy-5-methyl-a-pyrone]
ATP [1]: 0.004

CC(=O)O[C@@H]1c2c(ccc3ccc(=O)oc23)OC(C)(C)[C@@H]1OC(=O)CC(C)C [dihydrosamidin, reference compound]
ATP (composite Z-score) (Conc 20 μM): 0.085

COc1ccc2c(c1)OCc1c-2oc2cc(OC)ccc12 [dehydrovariabilin]
ATP [5]: −0.517

CCCCC(CC)CNC(=N)NC(=N)NCCCCCCNC(=N)NC(=N)NCC(CC)CCCC (stereo not shown) [alexidine]
ATP: −5.106 | ATP [2]: −1.715

C[C@]12CCC(=O)C(O)=C1CC[C@@H]1[C@@H]2CC[C@]2(C)C(=O)CC[C@@H]12 [formestane]
ATP [5]: −0.830

N=C(N)N/N=C/c1c(Cl)cccc1Cl [guanabenz]
ATP [5]: 1.035

CC1=C(CC(=O)O)c2cc(F)ccc2/C1=C\c1ccc([S+](C)[O-])cc1 (stereo not shown) [sulindac]
ATP: 0.793

CC1=C(CCC(=O)O)c2cc3[nH]c(cc4nc(cc5[nH]c(cc1n2)c(C)c5C(C)O)C(C)=C4C(C)O)c(C)c3CCC(=O)O (stereo not shown) [haematoporphyrin]
ATP [5]: −0.917

CCOC(=O)CCCCCCCCCCCCC1C=CCC1 (stereo not shown) [chaulmoogric acid, ethyl ester]
ATP [4]: −0.123

Cc1ccc(/N=C/N(C)/C=N/c2ccc(C)cc2C)c(C)c1 [amitraz]
ATP [5]: 0.305

CC(=O)OC1CC[C@@]2(C)C(CC[C@H]3[C@@H]4CC=C(C(C)=O)[C@@]4(C)C(=O)C[C@@H]32)C1 (stereo partly shown) [3-acetoxypregn-16-en-12,20-dione]
ATP [1]: 1.152

COc1cc(OC)c2c(c1)O[C@H](c1ccc(OC)c(OC)c1)[C@@H](O)C2 [catechin tetramethylether]
ATP [3]: 0.310

N=c1ccn2c(n1)O[C@H]1[C@H](O)[C@@H](CO)O[C@H]12 [ancitabine]
ATP (composite Z-score) (Conc 20 μM): −0.629

CCOC(=O)C1(O)Oc2cc(OC)cc(OC)c2C(=O)C1c1ccccc1 (stereo not shown) [2-ethoxycarbonyl-2-hydroxy-5,7-dimethoxyisoflavanone, reference compound]
ATP [1]: −1.500

COc1ccc(-c2cc(=O)c3c(O)c(OC)c(O[C@@H]4O[C@H](CO[C@@H]5O[C@@H](C)[C@H](O)[C@@H](O)[C@H]5O)[C@@H](O)[C@H](O)[C@H]4O)cc3o2)cc1 [pectolinarin]
ATP [3]: −0.465

COc1cc(O)c2c(=O)cc(-c3ccc(O)cc3)oc2c1 [genkwanin]
ATP (composite Z-score) (Conc 20 μM): 0.957

OC[C@H]1O[C@@H](Oc2cc(O)cc(/C=C/c3ccc(O)cc3)c2)[C@H](O)[C@@H](O)[C@@H]1O [piceid]
ATP (composite Z-score) (Conc 20 μM): 1.229

CCN1CCN(C(=O)N[C@@H](C(=O)N[C@@H]2C(=O)N3[C@@H]2SC(C)(C)[C@@H]3C(=O)O)c2ccccc2)C(=O)C1=O [piperacillin]
ATP [5]: 0.634

nonoxynol-9
ATP (composite Z-score vs mock-treated (DMSO) wells, concentration of each compound in μM): −0.737

N#CC(=Cc1cccc(O)c1)C(=O)O [alpha-cyano-3-hydroxycinnamic acid]
ATP [2]: −0.225

C=C1CCC(C2CC(=O)OC2=O)C(=O)CCC2C1CC2(C)C (stereo not shown)
ATP [3]: −0.614

CC(=O)O[C@H]1C[C@@H](OC(C)=O)C(C)(C)C2CC(=O)[C@]3(C)C(CC[C@@]4(C)[C@H](c5ccoc5)OC(=O)[C@H]5O[C@]543)[C@]21C (stereo partly shown) [7-deacetoxy-7-oxokhivorin]
ATP [1]: −0.644

CC1(O)CC2C(CC1O)C2(C)C (stereo not shown) [3,4-dihydroxycarane]
ATP [5]: −0.280

CCN1C[C@]2(C)CC[C@H](OC)[C@@]34C1[C@]1(OCO[C@@]15C[C@H](OC)[C@H]1C[C@]3(O)[C@@H]5[C@H]1OC)[C@@H](OC(C)=O)[C@H]24 [deltaline]
ATP (composite Z-score) (Conc 20 μM): 0.619

COc1cc(OC)c2c(=O)cc(-c3ccccc3)oc2c1 [chrysin dimethyl ether]
ATP (composite Z-score) (Conc 20 μM): −0.343

CC12CCC3c4ccc(OCc5ccccc5)cc4CCC3C1C[C@@H](O)[C@@H]2O (stereo partly shown) [estriol benzyl ether]
ATP (composite Z-score vs DMSO mock-treated wells): 2.168

COc1cc(OC)c2c(=O)c(-c3ccccc3)c(C)oc2c1OC [2-methyl-5,7,8-trimethoxyisoflavone]
ATP [5]: 1.653

NCCc1ccc(S(=O)(=O)F)cc1 [4-aminoethylbenzenesulfonyl fluoride]
ATP [5]: 1.073

CC(=O)O[C@@H]1CC2C(C)(C)C(=O)CC[C@]2(C)C2CC[C@]3(C)C(=CC(=O)O[C@H]3c3ccoc3)[C@@]21C (stereo partly shown) [dihydrodeoxygedunin]
ATP [3]: 1.697

3-nor-3-oxopanasinsan-6-ol
ATP [3]: 0.158

COc1ccc2c(c1)OCC(Cc1ccc(OC)c(OC)c1)C2=O (stereo not shown) [deoxysappanone B trimethyl ether]
ATP (composite Z-score) (Conc 20 μM): 1.619

C[N+](C)(C)CCOC(N)=O [carbachol]
ATP [2]: −0.772 | ATP (27.18 μM, composite Z-score vs DMSO): −1.509

CC(=O)OC1CC2C(C)(C)[C@@H](O)CC[C@]2(C)C2CC[C@]3(C)[C@H](c4ccoc4)OC(=O)[C@H]4O[C@]43[C@]12C (stereo partly drawn) [3beta-hydroxydeoxodihydrogedunin]
ATP [1]: 0.638

O=C(O[C@@H]1Cc2c(O)cc(O)cc2O[C@@H]1c1cc(O)c(O)c(O)c1-c1c([C@H]2Oc3cc(O)cc(O)c3C[C@H]2O)cc(O)c(O)c1O)c1cc(O)c(O)c(O)c1 [2′,2′-bisepigallocatechin monogallate]
ATP (composite Z-score) (Conc 20 μM): 0.545

CC(=O)c1ccc(O)c(CC=C(C)C)c1 [3-prenyl-4-hydroxyacetophenone]
ATP [5]: 1.387

COC(=O)Nc1nc2ccc(C(=O)c3ccccc3)cc2[nH]1 [mebendazole, methyl[5-benzoyl-benzimidazol-2-carbamate], reference compound]
ATP (13.54 μM, composite Z-score vs DMSO): 0.344 | ATP [2]: −0.483

O=C(CCCCCCCCCCCCC1CCCC1)Nc1ccc(S(=O)(=O)c2ccc(NC(=O)CCCCCCCCCCCCC3CCCC3)cc2)cc1 [chaulmosulfone]
ATP (composite Z-score) (Conc 20 μM): −0.078

COC(=O)c1cccc2cc(OC)c(OC)c(OC)c2c1=O
ATP [1]: 0.028
